This is one part of the list.
Assays:
Assay in all cases: glycan array binding signal (z-score within array); higher = stronger binding
Conditions in all cases: glycan notation: IUPAC condensed, linker removed
Fuc(a1-2)Gal = target: Fuc(a1-2)Gal
Procedure, shortened: (§1)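 Arrays were curated from the Consortium for Functional Glycomics database, 3228 in total, and kept only where the protein sequence was available. Binding is expressed as a within-array Z-score. This score was averaged across arrays of the same protein sequence at different concentrations or buffers and across linkers, and negative values can be read as non-binding.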

Fuc(a1-2)Gal(b1-3)GalNAc = target: Fuc(a1-2)Gal(b1-3)GalNAc
Procedure, shortened: as §1

[1] = target: Fuc(a1-2)Gal(b1-3)GalNAc(b1-3)Gal
Procedure, shortened: as §1

[2] = target: Fuc(a1-2)Gal(b1-3)GalNAc(b1-3)Gal(a1-4)Gal(b1-4)Glc
Procedure, shortened: as §1

[3] = target: Fuc(a1-2)Gal(b1-3)GalNAc(b1-4)[Neu5Ac(a2-3)]Gal(b1-4)Glc
Procedure, shortened: as §1

Fuc(a1-2)Gal(b1-3)GlcNAc = target: Fuc(a1-2)Gal(b1-3)GlcNAc
Procedure, shortened: as §1

[4] = target: Fuc(a1-2)Gal(b1-3)GlcNAc(b1-3)Gal(b1-4)Glc
Procedure, shortened: as §1

[5] = target: Fuc(a1-2)Gal(b1-3)[Fuc(a1-4)]GlcNAc
Procedure, shortened: as §1

Fuc(a1-2)Gal(b1-4)Glc = target: Fuc(a1-2)Gal(b1-4)Glc
Procedure, shortened: as §1

Fuc(a1-2)Gal(b1-4)GlcNAc = target: Fuc(a1-2)Gal(b1-4)GlcNAc
Procedure, shortened: as §1

[6] = target: Fuc(a1-2)Gal(b1-4)GlcNAc(b1-3)Gal(b1-4)GlcNAc
Procedure, shortened: as §1

[7] = target: Fuc(a1-2)Gal(b1-4)GlcNAc(b1-3)Gal(b1-4)GlcNAc(b1-3)Gal(b1-4)GlcNAc
Procedure, shortened: as §1

[8] = target: Fuc(a1-2)Gal(b1-4)[Fuc(a1-3)]GlcNAc
Procedure, shortened: as §1

[9] = target: Fuc(a1-2)Gal(b1-4)[Fuc(a1-3)]GlcNAc(b1-3)Gal(b1-4)[Fuc(a1-3)]GlcNAc
Procedure, shortened: as §1

[10] = target: Fuc(a1-2)Gal(b1-4)[Fuc(a1-3)]GlcNAc(b1-3)Gal(b1-4)[Fuc(a1-3)]GlcNAc(b1-3)Gal(b1-4)[Fuc(a1-3)]GlcNAc
Procedure, shortened: as §1

Fuc(a1-2)GlcNAc = target: Fuc(a1-2)GlcNAc
Procedure, shortened: as §1

Fuc(a1-2)[Gal(a1-3)]Gal = target: Fuc(a1-2)[Gal(a1-3)]Gal
Procedure, shortened: as §1

[11] = target: Fuc(a1-2)[Gal(a1-3)]Gal(b1-3)GlcNAc
Procedure, shortened: as §1

[12] = target: Fuc(a1-2)[Gal(a1-3)]Gal(b1-4)Glc
Procedure, shortened: as §1

[13] = target: Fuc(a1-2)[Gal(a1-3)]Gal(b1-4)GlcNAc
Procedure, shortened: as §1

[14] = target: Fuc(a1-2)[Gal(a1-3)]Gal(b1-4)[Fuc(a1-3)]GlcNAc
Procedure, shortened: as §1

[15] = target: Fuc(a1-2)[Gal(a1-4)]Gal(b1-4)GlcNAc
Procedure, shortened: as §1

[16] = target: Fuc(a1-2)[GalNAc(a1-3)]Gal
Procedure, shortened: as §1

[17] = target: Fuc(a1-2)[GalNAc(a1-3)]Gal(b1-3)GlcNAc
Procedure, shortened: as §1

[18] = target: Fuc(a1-2)[GalNAc(a1-3)]Gal(b1-4)Glc
Procedure, shortened: as §1

[19] = target: Fuc(a1-2)[GalNAc(a1-3)]Gal(b1-4)GlcNAc
Procedure, shortened: as §1

[20] = target: Fuc(a1-2)[GalNAc(a1-3)]Gal(b1-4)[Fuc(a1-3)]GlcNAc
Procedure, shortened: as §1

[21] = target: Fuc(a1-2)[GalNAc(a1-4)]Gal(b1-4)GlcNAc
Procedure, shortened: as §1

[22] = target: Fuc(a1-2)[GalNAc(b1-3)]Gal
Procedure, shortened: as §1

Fuc(a1-3)GlcNAc = target: Fuc(a1-3)GlcNAc
Procedure, shortened: as §1

[23] = target: Fuc(a1-3)[Gal(b1-4)]GlcNAc
Procedure, shortened: as §1

[24] = target: Fuc(a1-3)[Gal(b1-4)]GlcNAc(b1-4)Gal(b1-4)[Fuc(a1-3)]GlcNAc
Procedure, shortened: as §1

[25] = target: Fuc(a1-3)[Gal(b1-4)]GlcNAc(b1-4)Gal(b1-4)[Fuc(a1-3)]GlcNAc(b1-4)Gal(b1-4)[Fuc(a1-3)]GlcNAc
Procedure, shortened: as §1

[26] = target: Fuc(a1-3)[Gal3S(b1-4)]GlcNAc
Procedure, shortened: as §1

[27] = target: Fuc(a1-3)[GalNAc(b1-4)]GlcNAc
Procedure, shortened: as §1

Fuc(a1-4)GlcNAc = target: Fuc(a1-4)GlcNAc
Procedure, shortened: as §1

Fuc(b1-3)GlcNAc = target: Fuc(b1-3)GlcNAc
Procedure, shortened: as §1

Gal(a1-2)Gal = target: Gal(a1-2)Gal
Procedure, shortened: as §1

Gal(a1-3)Gal = target: Gal(a1-3)Gal
Procedure, shortened: as §1

Gal(a1-3)Gal(b1-3)GlcNAc = target: Gal(a1-3)Gal(b1-3)GlcNAc
Procedure, shortened: as §1

Gal(a1-3)Gal(b1-4)Glc = target: Gal(a1-3)Gal(b1-4)Glc
Procedure, shortened: as §1

Gal(a1-3)Gal(b1-4)GlcNAc = target: Gal(a1-3)Gal(b1-4)GlcNAc
Procedure, shortened: as §1

[28] = target: Gal(a1-3)Gal(b1-4)[Fuc(a1-3)]GlcNAc
Procedure, shortened: as §1

Gal(a1-3)GalNAc = target: Gal(a1-3)GalNAc
Procedure, shortened: as §1

[29] = target: Gal(a1-3)[Gal(a1-4)]Gal(b1-4)GlcNAc
Procedure, shortened: as §1

B1: MPA (Maclura pomifera) (protein)
chain: GVTFDDGAYTGIREINFEYNSETAIGGLRVTYDLNGMPFVAEDHKSFITGFKPVKISLEFPSEYIVEVSGYVGKVEGYTVIRSLTFKTNKQTYGPYGVTNGTPFSLPIENGLIVGFKGSIGYWLDYFSIYLSLNGPNGKSQSIIVGPWGDRVTN
Fuc(a1-2)Gal
  glycan array binding signal (z-score): -0.136
Fuc(a1-2)Gal(b1-3)GalNAc
  glycan array binding signal (z-score): 2.25
[1]
  glycan array binding signal (z-score): 0.14
[2]
  glycan array binding signal (z-score): -0.234
[3]
  glycan array binding signal (z-score): -0.237
Fuc(a1-2)Gal(b1-3)GlcNAc
  glycan array binding signal (z-score): -0.234
[4]
  glycan array binding signal (z-score): -0.244
[5]
  glycan array binding signal (z-score): -0.236
Fuc(a1-2)Gal(b1-4)Glc
  glycan array binding signal (z-score): -0.208
Fuc(a1-2)Gal(b1-4)GlcNAc
  glycan array binding signal (z-score): -0.213
[6]
  glycan array binding signal (z-score): -0.244
[7]
  glycan array binding signal (z-score): -0.242
[8]
  glycan array binding signal (z-score): -0.22
[9]
  glycan array binding signal (z-score): -0.222
[10]
  glycan array binding signal (z-score): -0.217
Fuc(a1-2)GlcNAc
  glycan array binding signal (z-score): -0.189
Fuc(a1-2)[Gal(a1-3)]Gal
  glycan array binding signal (z-score): -0.123
[11]
  glycan array binding signal (z-score): -0.244
[12]
  glycan array binding signal (z-score): -0.242
[13]
  glycan array binding signal (z-score): -0.241
[14]
  glycan array binding signal (z-score): -0.247
[15]
  glycan array binding signal (z-score): -0.233
[16]
  glycan array binding signal (z-score): -0.23
[17]
  glycan array binding signal (z-score): -0.24
[18]
  glycan array binding signal (z-score): -0.232
[19]
  glycan array binding signal (z-score): -0.234
[20]
  glycan array binding signal (z-score): -0.229
[21]
  glycan array binding signal (z-score): -0.223
[22]
  glycan array binding signal (z-score): -0.013
Fuc(a1-3)GlcNAc
  glycan array binding signal (z-score): -0.191
[23]
  glycan array binding signal (z-score): -0.216
[24]
  glycan array binding signal (z-score): -0.211
[25]
  glycan array binding signal (z-score): -0.211
[26]
  glycan array binding signal (z-score): -0.178
[27]
  glycan array binding signal (z-score): -0.213
Fuc(a1-4)GlcNAc
  glycan array binding signal (z-score): -0.223
Fuc(b1-3)GlcNAc
  glycan array binding signal (z-score): -0.22
Gal(a1-2)Gal
  glycan array binding signal (z-score): -0.234
Gal(a1-3)Gal
  glycan array binding signal (z-score): 0.155
Gal(a1-3)Gal(b1-3)GlcNAc
  glycan array binding signal (z-score): -0.224
Gal(a1-3)Gal(b1-4)Glc
  glycan array binding signal (z-score): -0.225
Gal(a1-3)Gal(b1-4)GlcNAc
  glycan array binding signal (z-score): -0.177
[28]
  glycan array binding signal (z-score): -0.158
Gal(a1-3)GalNAc
  glycan array binding signal (z-score): 2.28
[29]
  glycan array binding signal (z-score): -0.16
